In PubChem BioAssay (EPA / NIEHS):
Certain results were filed several times, with different values. Only these are listed. An entry can have further records. Values given together are repeats across runs, samples, wells, individuals or studies. Records with an inconclusive call do not appear. Rule for the calls, unless noted: active = hit-call score of the fitted dose curve at least 0.9, where 1 is the maximum; inactive = score below 0.9. Counts like (3×) stand for listed records that agree. The source holds several records for some structures; these can differ, active in one and inactive in another.

How the values were obtained:
[1] = APR_HepG2_MitoticArrest_72hr: Apredica 72-hour HepG2 Assay for Mitotic Arrest (AID 2282918); conditions: high-content imaging, actives raise or lower the signal
Outline: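 HepG2 cells treated 72 h at 0.39–200 uM, 0.5% DMSO final; formaldehyde-fixed, stained with Hoechst 33342 and phospho-histone H3 antibody, imaged by high-content fluorescence; bidirectional fit versus DMSO.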

[2] = target: human Retinoid X Receptor beta (RXRb), RXRB (gene 6257) (UniProt P28702); assay: ATG_RXRb_TRANS: Attagene TRANS-FACTORIAL HepG2 Assay for human Retinoid X Receptor beta (RXRb) (AID 2283013; active = hit-call score of the fitted dose curve at least 0.9, where 1 is the maximum)
Chain of UniProt P28702 (P28702 whole entry, looked up): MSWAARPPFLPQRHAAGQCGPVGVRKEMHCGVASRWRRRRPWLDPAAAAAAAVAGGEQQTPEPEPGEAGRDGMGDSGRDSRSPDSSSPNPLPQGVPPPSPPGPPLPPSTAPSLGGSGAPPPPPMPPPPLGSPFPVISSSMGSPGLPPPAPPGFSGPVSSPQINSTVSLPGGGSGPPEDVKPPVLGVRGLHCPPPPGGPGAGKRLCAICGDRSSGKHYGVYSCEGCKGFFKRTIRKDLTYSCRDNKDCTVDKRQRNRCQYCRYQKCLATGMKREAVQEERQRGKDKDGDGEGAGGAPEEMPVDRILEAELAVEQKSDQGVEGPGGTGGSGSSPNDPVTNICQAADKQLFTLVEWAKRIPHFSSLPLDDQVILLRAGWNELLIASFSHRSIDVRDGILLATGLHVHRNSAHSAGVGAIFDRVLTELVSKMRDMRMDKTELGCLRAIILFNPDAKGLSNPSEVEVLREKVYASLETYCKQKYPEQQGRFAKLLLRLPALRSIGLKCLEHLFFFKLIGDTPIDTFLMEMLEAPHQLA
Outline: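 Multiplexed TRANS reporter assay in HepG2; 24 h dosing; reporter mRNA by RT-PCR/CE fluorescence; gain-of-signal relative to DMSO.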

[3] = read-out: Thrombomodulin, THBD (gene 7056); assay: BSK_CASM3C_Thrombomodulin: BioMAP Diversity Plus: CASM3C Assay for Thrombomodulin Biomarker Activity (AID 2283051); conditions: actives raise or lower the signal; primary human coronary artery smooth muscle cells;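 note: thrombomodulin protein level measured by ELISA 24 h after dosing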
[4] = read-out: Interferon-gamma inducible Protein 10 (IP10), CXCL10 (gene 3627); assay: BSK_hDFCGF_IP10: BioMAP Diversity Plus: hDFCGF Assay for Interferon-gamma inducible Protein 10 (IP10) Biomarker Activity (AID 2283053); conditions: actives raise or lower the signal; primary human foreskin fibroblasts
Outline: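 IP-10 levels, quantified by ELISA, are taken from human foreskin fibroblast cultures 24 h after chemical treatment, with DMSO serving as negative control and baseline for bidirectional analysis.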

[5] = read-out: Collagen III, COL3A1 (gene 1281); assay: BSK_hDFCGF_CollagenIII: BioMAP Diversity Plus: hDFCGF Assay for Collagen III Biomarker Activity (AID 2283056); conditions: actives raise or lower the signal; primary human foreskin fibroblasts
Outline: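 Human foreskin fibroblast primary cultures sampled 24 h after dosing; Collagen III quantified by ELISA. Signal fitted bidirectionally against DMSO baseline.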

[6] = BSK_hDFCGF_SRB: Viability Assessment in the BioMAP Diversity Plus: hDFCGF Assay (AID 2283061); conditions: primary human foreskin fibroblasts;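 note: cells exposed to compound for 24 h before the read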
Outline: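 Human foreskin fibroblasts in 96-well plates were treated 24 h. Total protein was measured by 0.1% SRB staining after 10% TCA fixation, read at 560 nm. Data were fitted bidirectionally against DMSO.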

[7] = read-out: Intercellular Adhesion Molecule 1 (ICAM1), ICAM1 (gene 3383); assay: BSK_KF3CT_ICAM1: BioMAP Diversity Plus: KF3CT Assay for Intercellular Adhesion Molecule 1 (ICAM1) Biomarker Activity (AID 2283067); conditions: actives raise or lower the signal; primary human keratinocytes with fibroblasts
Outline: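 Human keratinocyte–foreskin fibroblast co-culture was treated for 24 h. Cell-surface ICAM-1 was quantified by ELISA, fitted bidirectionally relative to DMSO. Cytotoxicity was checked in parallel cultures by SRB total-protein staining.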

[8] = read-out: Interferon-gamma inducible Protein 10 (IP10), CXCL10 (gene 3627); assay: BSK_KF3CT_IP10: BioMAP Diversity Plus: KF3CT Assay for Interferon-gamma inducible Protein 10 (IP10) Biomarker Activity (AID 2283068); conditions: actives raise or lower the signal; primary human keratinocytes with fibroblasts
Outline: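 ELISA read-out of IP-10 after 24 h chemical dosing of human skin primary co-culture (keratinocytes, foreskin fibroblasts). Gain or loss of signal relative to DMSO, bidirectional curve fit.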

[9] = read-out: TIMP metallopeptidase inhibitor 2 (TIMP2), TIMP2 (gene 7077); assay: BSK_KF3CT_TIMP2: BioMAP Diversity Plus: KF3CT Assay for TIMP metallopeptidase inhibitor 2 (TIMP2) Biomarker Activity (AID 2283071); conditions: actives raise or lower the signal; primary human keratinocytes with fibroblasts
Outline: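 Keratinocyte–fibroblast co-culture, 24 h exposure; TIMP-2 ELISA, DMSO-normalised bidirectional fit. Parallel SRB (0.1%, TCA-fixed, 560 nm) total-protein staining gauges cytotoxicity.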

[10] = read-out: C-C motif chemokine 2 (Homo sapiens) (UniProt P13500); assay: BSK_KF3CT_MCP1: BioMAP Diversity Plus: KF3CT Assay for Monocyte Chemoattractant Protein 1 (MCP1/CCL2) Biomarker Activity (AID 2283073); conditions: actives raise or lower the signal; primary human keratinocytes with fibroblasts
Outline: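 Human keratinocyte–foreskin fibroblast co-culture; MCP-1 measured by ELISA 24 h after dosing. Bidirectional fit vs DMSO; cytotoxicity tracked by SRB total protein in parallel cultures.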

[11] = read-out: Matrix Metallopeptidase 9 (MMP9), MMP9 (gene 4318); assay: BSK_KF3CT_MMP9: BioMAP Diversity Plus: KF3CT Assay for Matrix Metallopeptidase 9 (MMP9) Biomarker Activity (AID 2283074); conditions: actives raise or lower the signal; primary human keratinocytes with fibroblasts;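 note: MMP9 protein level quantified by ELISA in the co-culture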
Outline: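 Keratinocyte plus foreskin fibroblast human primary skin co-culture was dosed with chemical and MMP-9 was quantified by ELISA 24 h later. Bidirectional curve fitting used DMSO as negative control and activity baseline.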

[12] = BSK_LPS_PGE2: BioMAP Diversity Plus: LPS Assay for Prostaglandin E2 (PGE2) Biomarker Activity (AID 2283082); conditions: actives raise or lower the signal; primary human HUVEC with PBMC;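 note: secreted prostaglandin E2 measured by ELISA in LPS-stimulated co-culture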
Outline: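 Endpoint derived from bidirectional curve fitting versus DMSO of ELISA-measured PGE2 in LPS-stimulated human primary vascular co-culture (HUVEC with PBMC) harvested at 24 h.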

[13] = system: guinea pig Leukotriene B4 Receptor (LTB4), gene 100379538; assay: NVS_GPCR_gLTB4: NovaScreen (NVS) G Protein-Coupled Receptor Assay for guinea pig Leukotriene B4 Receptor (LTB4) (AID 2283247; active = hit-call score of the fitted dose curve at least 0.9, where 1 is the maximum)
Outline: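 Radioligand displacement on guinea pig spleen membranes, filter-based scintillation counting 2 h after dosing. Primary duplicate single point at 25 uM; hits over threshold (e.g. 30% inhibition) run in concentration-response up to 50 uM, DMSO baseline.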

[14] = target: Glucocorticoid receptor (Homo sapiens) (UniProt P04150); assay: NVS_NR_hGR: NovaScreen (NVS) Nuclear Receptor Binding Assay for human Glucocorticoid Receptor (GR) (AID 2283363; active = hit-call score of the fitted dose curve at least 0.9, where 1 is the maximum;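 note: activity is loss of specific radioligand binding signal relative to DMSO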)
Chain of UniProt P04150 (P04150 whole entry, looked up): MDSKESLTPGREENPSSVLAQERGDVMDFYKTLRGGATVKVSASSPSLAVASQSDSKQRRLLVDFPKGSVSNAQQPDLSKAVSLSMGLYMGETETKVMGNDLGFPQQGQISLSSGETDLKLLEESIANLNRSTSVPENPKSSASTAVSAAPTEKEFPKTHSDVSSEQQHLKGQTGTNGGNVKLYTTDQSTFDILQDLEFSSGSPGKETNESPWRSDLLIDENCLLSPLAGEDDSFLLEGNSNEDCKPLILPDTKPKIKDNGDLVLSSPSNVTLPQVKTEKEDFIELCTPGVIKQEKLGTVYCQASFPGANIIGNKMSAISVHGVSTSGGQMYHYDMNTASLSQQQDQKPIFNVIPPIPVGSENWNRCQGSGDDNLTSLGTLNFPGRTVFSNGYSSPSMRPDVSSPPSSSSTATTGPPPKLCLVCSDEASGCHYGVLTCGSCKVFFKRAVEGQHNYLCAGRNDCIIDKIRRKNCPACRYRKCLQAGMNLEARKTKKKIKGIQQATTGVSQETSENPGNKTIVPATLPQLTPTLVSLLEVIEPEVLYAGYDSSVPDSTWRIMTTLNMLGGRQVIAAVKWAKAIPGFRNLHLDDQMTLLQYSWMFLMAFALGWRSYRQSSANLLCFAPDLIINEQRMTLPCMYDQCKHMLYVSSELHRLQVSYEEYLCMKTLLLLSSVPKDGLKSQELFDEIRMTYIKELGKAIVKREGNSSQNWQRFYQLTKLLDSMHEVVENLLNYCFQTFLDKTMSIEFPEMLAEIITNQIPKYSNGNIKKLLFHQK
Outline: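 Cell-free radioligand binding with extracted receptor protein, read by filter-based scintillation counting 16 hours after dosing. Loss of specific signal versus DMSO baseline was scored. Primary screen ran in duplicate at 25 uM; actives were followed up in concentration series.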

[15] = ATG_XTT_Cytotoxicity: Cytotoxicity Assessment in the Attagene TRANS-FACTORIAL HepG2 Assay (AID 2283584; active = hit-call score of the fitted dose curve at least 0.9, where 1 is the maximum;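 note: XTT signal for cell number as viability in transfected HepG2 cells; cells exposed to compound for 24 h before reading; active means loss of viability signal versus DMSO baseline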)
Outline: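 HepG2 cells transiently transfected with GAL4-UAS multiple reporter units, dosed 24 h; cytotoxicity read by XTT as loss of signal versus DMSO baseline.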

Chain of C-C motif chemokine 2 (Homo sapiens) (P13500 whole entry, looked up): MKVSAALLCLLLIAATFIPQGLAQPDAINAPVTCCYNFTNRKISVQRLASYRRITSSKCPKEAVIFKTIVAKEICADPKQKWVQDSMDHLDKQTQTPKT

Oc1ccc(Cl)cc1Cc1ccccc1
AC50 [1]: active: 101, 74.1, 27.8, 72.3 µM [separate samples] | AC50 [2]: active: 5.64, 6.82, 7.31, 4.94, 6.81, 4.52, 4.25, 3.9, 2.36 µM [separate samples] | AC50 [3]: active: 4.69, 4.9, 13.2, 6.77, 25 µM [separate samples] | AC50 [4]: active: 27.1, 10.9, 14.8, 24.2, 8.74, 25.4, 29 µM [separate samples] | AC50 [5]: active: 15.3, 8.78, 29.3, 15.1, 9.38, 13.5, 28.6 µM [separate samples] | AC50 [6]: active: 29.6, 12.7, 18.5, 19.1, 8.05, 16.8, 28.9 µM [separate samples] | AC50 [7]: active: 31.4, 38.2, 39.2, 32.2, 8.88, 31.7, 36.7 µM [separate samples] | AC50 [8]: active: 37.8, 32.3, 37.9, 29.3, 9.81, 28.7, 29.6 µM [separate samples] | AC50 [9]: active: 32.5, 29.8, 34.7, 25.4, 6.4, 24, 31 µM [separate samples] | AC50 [10]: active: 32.8, 28.9, 31.9, 29.5, 9.68, 29.1, 30 µM [separate samples] | AC50 [11]: active: 31.2, 27.6, 32.4, 25.7, 7.03, 26.1, 28.5 µM [separate samples] | AC50 [12]: active: 12.7, 5.24, 3.49, 3.34, 3.36, 3.66, 4.24 µM [separate samples] | AC50 [13]: active: 20, 25.2 (2×), 5.01 (2×), 20.8 µM [separate samples] | AC50 [14]: active: 6.51, 25.2 (2×), 16.3, 14.8, 17.4, 8.65 µM [separate samples] | AC50 [15]: active: 132, 54.5, 144, 40.1 µM [separate samples]
